Experimental data published in article PMC4336329 (PLoS ONE, 2015).
Screen size: about 310,000 compounds; about 14,000 (4.5%) showed an effect of 50% or more. Effects have a minus sign here. This is one part of the list.

What follows are molecules tested against human ether-à-go-go-related gene (hERG) potassium channel (human, UniProt Q12809) (assay: primary screen, population patch clamp on CHO cells stably expressing hERG).
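Note: peak tail current of the secondary pulse compared with the same well before compound.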

Chain of human ether-à-go-go-related gene (hERG) potassium channel (Q12809 whole entry, looked up): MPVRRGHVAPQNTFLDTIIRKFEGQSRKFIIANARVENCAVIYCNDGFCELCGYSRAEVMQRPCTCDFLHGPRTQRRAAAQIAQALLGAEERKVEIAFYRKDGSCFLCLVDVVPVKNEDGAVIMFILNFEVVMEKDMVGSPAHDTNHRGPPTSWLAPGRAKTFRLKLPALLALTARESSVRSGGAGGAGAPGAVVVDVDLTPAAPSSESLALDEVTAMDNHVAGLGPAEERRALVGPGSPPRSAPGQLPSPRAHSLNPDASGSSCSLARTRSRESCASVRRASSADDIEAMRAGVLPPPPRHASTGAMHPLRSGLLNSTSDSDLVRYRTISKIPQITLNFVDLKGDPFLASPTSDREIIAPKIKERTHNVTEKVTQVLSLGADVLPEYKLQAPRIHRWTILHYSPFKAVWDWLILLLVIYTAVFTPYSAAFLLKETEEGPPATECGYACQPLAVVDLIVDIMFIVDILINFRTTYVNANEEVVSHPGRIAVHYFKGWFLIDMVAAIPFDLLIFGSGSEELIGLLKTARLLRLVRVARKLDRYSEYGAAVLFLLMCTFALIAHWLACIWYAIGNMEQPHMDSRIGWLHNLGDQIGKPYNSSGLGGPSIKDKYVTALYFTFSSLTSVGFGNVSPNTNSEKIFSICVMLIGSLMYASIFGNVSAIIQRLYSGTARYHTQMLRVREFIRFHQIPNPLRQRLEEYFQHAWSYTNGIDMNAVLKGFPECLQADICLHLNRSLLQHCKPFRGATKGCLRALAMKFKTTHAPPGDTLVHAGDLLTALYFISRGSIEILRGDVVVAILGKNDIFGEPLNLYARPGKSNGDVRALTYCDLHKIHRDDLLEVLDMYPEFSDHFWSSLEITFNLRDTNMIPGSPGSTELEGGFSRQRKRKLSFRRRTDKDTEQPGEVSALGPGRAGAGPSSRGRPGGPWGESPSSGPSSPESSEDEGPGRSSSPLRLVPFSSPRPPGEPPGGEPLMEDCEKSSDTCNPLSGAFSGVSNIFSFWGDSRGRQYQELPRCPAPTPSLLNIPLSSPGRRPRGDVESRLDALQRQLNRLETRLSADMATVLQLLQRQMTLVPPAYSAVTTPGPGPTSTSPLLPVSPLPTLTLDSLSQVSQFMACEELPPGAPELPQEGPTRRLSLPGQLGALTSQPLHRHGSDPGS

| Compound | hERG current change (%, negative = inhibition) at 10uM [%] |
| --- | --- |
| Cc1cc(C)n(CC(=O)O)n1 | 9.49 |
| CCOc1cc(CNCC(O)c2ccccc2)cc(Cl)c1OC.Cl (stereo not shown) | -7.78 |
| CC(C)CC(C(=O)OCC(=O)c1c(N)n(C)c(=O)n(C)c1=O)N1C(=O)c2ccccc2C1=O (stereo not shown) | -27 |
| CC(C)C(NS(=O)(=O)c1cccc2nsnc12)C(=O)N1CCn2c1nc1ccccc12 (stereo not shown) | -14.2 |
| C=CCNC(=S)N/N=C(\C)c1ccccn1 | -16.3 |
| CCOC(=O)c1sc(SC)nc1N | 17.8 |
| Cc1ccc(CSc2ccc(-c3ccc4c(c3)OCO4)nn2)cc1 | 0.231 |
| Cc1ccccc1N=C1Nc2ccccc2CS1 | 10.5 |
| CCn1c(=O)n(CC)c2cc(N3CCCC3)c(NC(=O)c3ccc(F)cc3)cc21 | -4.99 |
| CC1=C(CC(=O)O)c2cc(F)ccc2/C1=C\c1ccc(S(C)=O)cc1 (stereo not shown) | -0.957 |
| Cc1cc(NC(=O)c2ccco2)ccc1-n1cnnn1 | -3.71 |
| Cc1nnc(SCc2cc(=O)[nH]c(N3CCCCC3)n2)s1 | 5.72 |
| COc1ccc(C(CNC(=O)c2c(C)nn(Cc3ccccc3)c2Cl)N2CCOCC2)cc1 (stereo not shown) | -20.8 |
| CC(NC(=O)OC(C)(C)C)C(=O)Oc1ccc2ccc(=O)oc2c1 (stereo not shown) | 7.55 |
| O=C(Nc1ccccc1C(=O)Nc1ccccc1)c1ccccc1Br | 16.2 |
| Cc1cccc(-n2c(-c3ccc(Br)o3)n[nH]c2=S)c1 | 17.5 |
| Cc1cc(N/N=C/c2ccc([N+](=O)[O-])o2)nc2ccccc12 | 1.15 |
| CCCCCC1CCC(c2ccc(C(N)=O)cc2)CC1 (stereo not shown) | 5.27 |
| O=c1c2ccccc2cnn1Cc1n[nH]c(=S)n1-c1cc(Cl)cc(Cl)c1 | -2.93 |
| O=S(=O)(O)c1nc2ccccc2n1Cc1ccc(Cl)cc1 | 9.66 |

| Compound | hERG current change (%, negative = inhibition) at 10uM [%] |
| --- | --- |
| CCOc1ccc(NC(=O)C2CCC(N3C(=O)C4CC=CCC4C3=O)CC2)cc1 (stereo not shown) | 4.51 |
| COc1ccc(C(=O)NCC(c2ccco2)N2CCCC2)cc1S(=O)(=O)N1CCCCC1C (stereo not shown) | -36.8 |
| CCc1noc(C)c1C(=O)Nc1cc(S(=O)(=O)N2CCOCC2)ccc1OC(C)C | -45.1 |
| COc1cccc(/C=N/n2nnc3c(cnn3-c3ccccc3)c2=O)c1 | 6.82 |
| CS(=O)(=O)N1CCC(C(=O)Nc2ccc(Cl)c(C(F)(F)F)c2)CC1 | -10.4 |
| Cc1cc(S(=O)(=O)N2CCN(c3ccccn3)CC2)ccc1F | 6.15 |
| Cl.c1csc(CN2CCNCC2)c1 | 18.7 |
| O=C(O)C1CCCCC1C(=O)NC(c1ccccc1)c1ccccc1 (stereo not shown) | 1.81 |
| O=C1c2cccc([N+](=O)[O-])c2C(=O)N1CCO | 20.2 |
| CC(C(=O)O)N1C(=O)c2ccccc2C1=O (stereo not shown) | -1.85 |
| O=[N+]([O-])c1ccc(/C=N\N2CCN(c3ccc(Cl)cc3)CC2)cc1 | 16.8 |
| Cc1ccc(N(C(=O)CNC(=O)c2ccco2)C(C(=O)NC2CCCCC2)c2cccnc2)cc1F (stereo not shown) | 6.85 |
| CCOC(=O)c1sc(Nc2nc3c(OC)cccc3s2)cc1C | -0.888 |
| Cc1ccc(S(=O)(=O)C2CCOC2=O)cc1 (stereo not shown) | 3.23 |
| Cl.c1ccc(SCCOCCN2CCOCC2)cc1 | 14.3 |
| CC(OC(=O)c1nn(C)c(=O)c2ccccc12)C(=O)Nc1ccc(S(N)(=O)=O)cc1 (stereo not shown) | 11.6 |
| O=C1COc2ccc(C(=O)/C=C/c3ccccc3)cc2N1 | 8.06 |
| COc1ccccc1CNC(=O)N1CCN(S(=O)(=O)c2ccc(C)cc2)CC1 | 28.9 |
| CCCCc1ncc(CN2CCC(CC3CCCCO3)(C(=O)OCC)CC2)[nH]1 (stereo not shown) | -45 |
| Cc1ccc(O)c(C(=O)c2cc(C(=O)NCCC(C)C)c(=O)n(CCC(C)C)c2)c1 | 12.6 |

| Compound | hERG current change (%, negative = inhibition) at 10uM [%] |
| --- | --- |
| Cc1nn(CC(=O)NC2CCCC2)c(C)c1[N+](=O)[O-] | 6.03 |
| COc1ccc(CS(=O)(=O)/C(Cl)=C(/Cl)C(=O)Nc2ccc(OC)nc2)cc1 | 11.6 |
| O=C(NCC1CCCO1)[C@@H]1CSC2c3ccccc3C(=O)N21 (stereo partly shown) | 6.89 |
| Cc1cccc(-n2nnc3c(=O)n(Cc4ccccn4)cnc32)c1 | -7.65 |
| COc1ccc(NC(=O)CN(c2ccc(C)cc2)S(=O)(=O)c2c(C)nn(C)c2C)cc1OC | 12 |
| COc1cc(C(=O)NCC(=O)OCC(=O)c2ccc[nH]2)cc(OC)c1OC | 8.47 |
| Cn1c(SCC(=O)O)nnc1-c1ccc2ncccc2c1 | 12.9 |
| CN(C)c1ccc(CN(C(=O)c2cc3ccccc3oc2=O)C2CCS(=O)(=O)C2)cc1 (stereo not shown) | -11.8 |
| Cc1cc(NC(=O)CCCC(=O)N(c2ccccc2)C(C(=O)NC2CCCCC2)c2cccs2)no1 (stereo not shown) | -8.03 |
| CC/C(=N/NC(=O)c1ccc(Br)cc1)c1ccc(OCCN2CCOCC2)cc1 | -23.2 |
| COCCn1c(SCC(=O)Nc2ccc(NC(C)=O)cc2)nc2ccccc2c1=O | 12.1 |
| Cl.c1ccc2c(c1)nc(N1CCCCC1)c1ccccc12 | -2.67 |
| CCN(CC)S(=O)(=O)c1ccc2c(c1)nc(CCC(=O)OCC(=O)Nc1cc(OC)cc(OC)c1)n2C | -48.5 |
| c1ccc2c(c1)nc1n2CC2CON(C3CCCCC3)C12 (stereo not shown) | -2.24 |
| CCNC(=O)COC(=O)COc1ccc(Cl)cc1C | 7.93 |
| Cc1ccc(S(=O)(=O)Nc2cccnc2)cc1C | 13.6 |
| CC(=O)NCc1c(Cl)cccc1-n1cccc1 | 11.6 |
| C/C(=N\Nc1nc2c(s1)CCCC2)c1ccc(Cl)cc1.Cl | -12.6 |
